Test results as given in the supplement of paper PMC11417369.
± gives the standard deviation of the averaged measurements. Some of the results follow.

Tested on: PfAP2-I AP2 domain 3 (GST-tagged)
Assay: gcPBM binding intensity (ln(normalized median fluorescence intensity)); higher = stronger DNA binding
How it was run: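 Binding intensity values are the highest Masliner-normalised natural-log median intensity among replicate spots of either probe orientation. The binding step lasted 1 h in 1× PBS with 1% milk, 0.2 mg/ml BSA, 0.5% salmon testes DNA and 0.03% Triton X-100, using GST-tagged P. falciparum DNA-binding domains expressed in E. coli on an Agilent 4 × 180k array of primer-extended double-stranded 36-bp intergenic genomic probes plus negative controls. Alexa488 anti-GST antibody and a 488 nm scan detected bound protein.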

Sequence | gcPBM binding intensity (ln)
TTATTTATATATTGCCCACACACATGTGATTATTTA [CACACA_site1715] | 8.24 ± 0.6
AATATTTTTTGTTTTACACACATATATAAATATATA [CACACA_site3602] | 7.92 ± 0.54
TATTCCCCCCAACACACACACACACCGACATACCAC [CACACA_site8723] | 9.79 ± 0.61
GAATTATATACTTATTGTACAAAAAAAAAAAAAAAA [XGTACX_site3193] | 7.99 ± 0.61
ATAAACATGTATATATTAAAAAAAAAAAAAAAAAAT [CACACA_negctrl_site92] | 7.64 ± 0.42
AGTAAATATATTATATGTACGTATCATAAAATATAT [XGTACX_site1567] | 7.68 ± 0.54
TTAATATTAAAATATAAACACACAAAATTCAATTAT [CACACA_site9262] | 7.56 ± 0.64
AAGTTTAAAGGAATTACACAAACAAGCAAATATATA [CACACA_negctrl_site857] | 7.79 ± 0.63
ATTTTTTTTTTTTTTTTTAATTTATGTTGTTATTTT [CACACA_negctrl_site944] | 7.46 ± 0.52
GTAAAATAAATAATATAAATAAAATGAAATGAAACA [TGCATGCA_negctrl_site519] | 7.68 ± 0.61
ATTATATAATAATAAAGTACTAATATTTTTAAAAGA [XGTACX_site235] | 7.66 ± 0.4
TAATATATTAAAAGAAGTACATTTCTGATTTAATAG [XGTACX_site6403] | 7.84 ± 0.29
GAACCGTTTTTATGTAGTACATATGTATATATATAT [XGTACX_site1577] | 9.34 ± 0.5
TATTACAAAAATGTGTTATTATATAAACGTATAGAG [XGTACX_negctrl_site529] | 7.93 ± 0.39
TTTCTTATATTATATAAATATATAGATGTTAATGGT [CACACA_negctrl_site706] | 7.83 ± 0.38
AATATAATATAATGCACACATAAAAAAAAAAAAAAA [CACACA_site304] | 11.1 ± 0.87
AATGTAAAACGAAATGCACACTATGGAAAATATAAA [CACACA_site4559] | 9.17 ± 0.11
TCTTTATATCATCTTTCTAAATATATATATATATAA [CACACA_negctrl_site77] | 7.84 ± 0.55
TAATAATAATTAAAATGAGATAAATAAATATATATA [TGCATGCA_negctrl_site322] | 7.75 ± 0.49
TTATATATTTATAAATGTACGTATAAGAATTTAATT [XGTACX_site8541] | 7.93 ± 0.39
CTATTAATGTACTCTACACACATATAAGAGGACATT [CACACA_site471] | 8.14 ± 0.12
TGATTATAGACACGCGCACACACAACAAAAAAAAAA [CACACA_site9179] | 8.45 ± 0.36
TAAGTTTGTGCAAGTGGTACATATATATAAATTTAT [XGTACX_site5944] | 8.32 ± 0.59
TGGATTTTTTGATTTTTGTTTTTCTTCTTTCCCCCC [CACACA_negctrl_site1471] | 8.93 ± 0.25
